In the supplement of paper PMC4604168 (melanoma cell lines) one finds cell count data, which are given here for 27 molecules.

Each structure is given as a SMILES string. The list shows a part of the results. Many values rest on one well or one pass, so single values are uncertain.
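Note: cells treated in 1,536-well plates, then fixed and DAPI-stained, with nuclei counted from automated high-throughput microscope images.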

For this test, the system named is A2058. Description: cell count relative to DMSO control; melanoma cells; higher = more viable cells. The settings on record: library dose: standard library concentration; 72 h.
Turning to `Nc1ncn([C@H]2C[C@H](O)[C@@H](CO)O2)c(=O)n1` [decitabine] + Cc1nc(Nc2ncc(C(=O)Nc3c(C)cccc3Cl)s2)cc(N2CCN(CCO)CC2)n1 [dasatanib] (first compound 0.5 µM, partner dose 0.02 µM), the cell count amounted to 59.5%. Turning to `CC(=O)O[C@@]12CO[C@@H]1C[C@H](O)[C@@]1(C)C(=O)[C@H](O)C3=C(C)[C@@H](OC(=O)[C@H](O)[C@@H](NC(=O)OC(C)(C)C)c4ccccc4)C[C@@](O)([C@@H](OC(=O)c4ccccc4)[C@H]21)C3(C)C` [Docetaxel] + Nc1ncn([C@H]2C[C@H](O)[C@@H](CO)O2)c(=O)n1 [decitabine] (first compound 0.0005 µM, partner dose 0.5 µM), the cell count stood at 10.5%. `Nc1ncn([C@H]2C[C@H](O)[C@@H](CO)O2)c(=O)n1` [decitabine] + Cc1cc(N2CCOCC2)cc2[nH]c(-c3c(NC[C@@H](O)c4cccc(Cl)c4)cc[nH]c3=O)nc12 [BMS536924] (first compound 0.5 µM, partner dose 1 µM) had a cell count of 103%. The molecule `Nc1ncn([C@H]2C[C@H](O)[C@@H](CO)O2)c(=O)n1` [decitabine] + Cn1c(Nc2ccc(C(F)(F)F)cc2)nc2cc(Oc3ccnc(-c4ncc(C(F)(F)F)[nH]4)c3)ccc21 [CHIR265] (first compound 0.5 µM, partner dose 0.4 µM) had a cell count of 61.9%. In turn, `CC(=O)O[C@@]12CO[C@@H]1C[C@H](O)[C@@]1(C)C(=O)[C@H](O)C3=C(C)[C@@H](OC(=O)[C@H](O)[C@@H](NC(=O)OC(C)(C)C)c4ccccc4)C[C@@](O)([C@@H](OC(=O)c4ccccc4)[C@H]21)C3(C)C` [Docetaxel] + C[C@]1(c2nc3c(C(N)=O)cccc3[nH]2)CCCN1 [Veliparib] (first compound 0.0005 µM, partner dose 7 µM) returned a cell count of 5.99%. Next, `Nc1nc(F)nc2c1ncn2[C@@H]1O[C@H](CO)[C@@H](O)[C@@H]1O` [fludarabine] + Nc1cccc2c1CN(C1CCC(=O)NC1=O)C2=O [lenalidomide] (first compound 1 µM, partner dose 5 µM): 91.3%; `CC(=O)O[C@@]12CO[C@@H]1C[C@H](O)[C@@]1(C)C(=O)[C@H](O)C3=C(C)[C@@H](OC(=O)[C@H](O)[C@@H](NC(=O)OC(C)(C)C)c4ccccc4)C[C@@](O)([C@@H](OC(=O)c4ccccc4)[C@H]21)C3(C)C` [Docetaxel] + C=C(c1ccc(C(=O)O)cc1)c1cc2c(cc1C)C(C)(C)CCC2(C)C [Bexarotene] (first compound 0.0005 µM, partner dose 10 µM): 10%.

Regarding `Nc1ccn([C@@H]2O[C@H](CO)[C@@H](O)C2(F)F)c(=O)n1` [gemcitabine] + Cc1ccc(NC(=O)c2cccc(N(C)C)c2)cc1NC(=O)c1ccc(O)cc1 [ZM336372] (first compound 0.002 µM, partner dose 10 µM), the cell count worked out at 56.4%.

Molecule `Nc1ccn([C@@H]2O[C@H](CO)[C@@H](O)C2(F)F)c(=O)n1` [gemcitabine] + Clc1ccc(Nc2nnc(Cc3ccncc3)c3ccccc23)cc1 [vatalanib] (first compound 0.002 µM, partner dose 10 µM) came in with a cell count of 51.5%.

In turn, `CC(=O)O[C@@]12CO[C@@H]1C[C@H](O)[C@@]1(C)C(=O)[C@H](O)C3=C(C)[C@@H](OC(=O)[C@H](O)[C@@H](NC(=O)OC(C)(C)C)c4ccccc4)C[C@@](O)([C@@H](OC(=O)c4ccccc4)[C@H]21)C3(C)C` [Docetaxel] + COc1ccc(Cl)c(Nc2nc3ccccc3nc2NS(=O)(=O)c2cccc(NC(=O)C(C)(C)N)c2)c1 [XL147] (first compound 0.0005 µM, partner dose 4 µM) returned a cell count of 13.4%. Regarding `CO[C@H]1C[C@@H]2CC[C@@H](C)[C@@](O)(O2)C(=O)C(=O)N2CCCC[C@H]2C(=O)O[C@H]([C@H](C)C[C@@H]2CC[C@@H](OCCO)[C@H](OC)C2)CC(=O)[C@H](C)/C=C(\C)[C@@H](O)[C@@H](OC)C(=O)[C@H](C)C[C@H](C)/C=C/C=C/C=C/1C` [everolimus] + CCc1ccc(CCOc2ccc(CC3SC(=O)NC3=O)cc2)nc1 [pioglitazone] (first compound 0.1 µM, partner dose 10 µM), the cell count was found to be 74.9%. Then `CC(=O)c1c(C)c2cnc(Nc3ccc(N4CCNCC4)cn3)nc2n(C2CCCC2)c1=O` [palbociclib] + Cc1nc(Nc2ncc(C(=O)Nc3c(C)cccc3Cl)s2)cc(N2CCN(CCO)CC2)n1 [dasatanib] (first compound 0.2 µM, partner dose 0.02 µM), with 78.3%; and `Nc1ccn([C@@H]2O[C@H](CO)[C@@H](O)C2(F)F)c(=O)n1` [gemcitabine] + Cc1nc(Nc2ncc(C(=O)Nc3c(C)cccc3Cl)s2)cc(N2CCN(CCO)CC2)n1 [dasatanib] (first compound 0.002 µM, partner dose 0.02 µM), with 37%. For `CO[C@H]1C[C@@H]2CC[C@@H](C)[C@@](O)(O2)C(=O)C(=O)N2CCCC[C@H]2C(=O)O[C@H]([C@H](C)C[C@@H]2CC[C@@H](OCCO)[C@H](OC)C2)CC(=O)[C@H](C)/C=C(\C)[C@@H](O)[C@@H](OC)C(=O)[C@H](C)C[C@H](C)/C=C/C=C/C=C/1C` [everolimus] + Cn1cncc1[C@@](N)(c1ccc(Cl)cc1)c1ccc2c(c1)c(-c1cccc(Cl)c1)cc(=O)n2C [tipifarnib] (first compound 0.1 µM, partner dose 0.05 µM), the cell count stood at 44.1%.

For the molecule `CC(=O)c1c(C)c2cnc(Nc3ccc(N4CCNCC4)cn3)nc2n(C2CCCC2)c1=O` [palbociclib] + NCC(=O)Nc1ccc(-n2nc(C(F)(F)F)cc2-c2ccc3c(ccc4ccccc43)c2)cc1 [OSU03012] (first compound 0.2 µM, partner dose 5 µM), the cell count came to 88.6%. Then `Nc1ccn([C@@H]2O[C@H](CO)[C@@H](O)C2(F)F)c(=O)n1` [gemcitabine] + C[C@]1(c2nc3c(C(N)=O)cccc3[nH]2)CCCN1 [Veliparib] (first compound 0.002 µM, partner dose 7 µM), with 49.5%.

In turn, `Nc1ccn([C@@H]2O[C@H](CO)[C@@H](O)C2(F)F)c(=O)n1` [gemcitabine] + COCC[n+]1c2c(n(Cc3cnccn3)c1C)C(=O)c1ccccc1C2=O [YM155] (first compound 0.002 µM, partner dose 0.002 µM) came in with a cell count of 18%. Then `Nc1nc(F)nc2c1ncn2[C@@H]1O[C@H](CO)[C@@H](O)[C@@H]1O` [fludarabine] + Cn1c(Nc2ccc(C(F)(F)F)cc2)nc2cc(Oc3ccnc(-c4ncc(C(F)(F)F)[nH]4)c3)ccc21 [CHIR265] (first compound 1 µM, partner dose 0.4 µM), with 67%; and `Nc1nc(F)nc2c1ncn2[C@@H]1O[C@H](CO)[C@@H](O)[C@@H]1O` [fludarabine] + O=C(Nc1cccc(Cl)c1)Nc1ncc(CCNc2ncnc3ccsc23)s1 [SNS314] (first compound 1 µM, partner dose 0.004 µM), with 77.6%; and `CC(=O)c1c(C)c2cnc(Nc3ccc(N4CCNCC4)cn3)nc2n(C2CCCC2)c1=O` [palbociclib] + COCC[n+]1c2c(n(Cc3cnccn3)c1C)C(=O)c1ccccc1C2=O [YM155] (first compound 0.2 µM, partner dose 0.002 µM), with 21.1%. `Nc1nc(F)nc2c1ncn2[C@@H]1O[C@H](CO)[C@@H](O)[C@@H]1O` [fludarabine] + Cn1nnc2c(C(N)=O)ncn2c1=O [temozolomide] (first compound 1 µM, partner dose 10 µM) had a cell count of 53.8%. `CC(=O)c1c(C)c2cnc(Nc3ccc(N4CCNCC4)cn3)nc2n(C2CCCC2)c1=O` [palbociclib] + Cc1ccc(NC(=O)c2cccc(N(C)C)c2)cc1NC(=O)c1ccc(O)cc1 [ZM336372] (first compound 0.2 µM, partner dose 10 µM) showed a cell count of 101%. Molecule `Nc1ncn([C@H]2C[C@H](O)[C@@H](CO)O2)c(=O)n1` [decitabine] + C[C@@H]1CCN(C(=O)CC#N)C[C@@H]1N(C)c1ncnc2[nH]ccc12 [CP690550] (first compound 0.5 µM, partner dose 5 µM) yielded a cell count of 75%. For the molecule `Nc1ncn([C@H]2C[C@H](O)[C@@H](CO)O2)c(=O)n1` [decitabine] + Clc1ccc(Nc2nnc(Cc3ccncc3)c3ccccc23)cc1 [vatalanib] (first compound 0.5 µM, partner dose 10 µM), the cell count stood at 74.1%.

On to `Nc1nc(F)nc2c1ncn2[C@@H]1O[C@H](CO)[C@@H](O)[C@@H]1O` [fludarabine] + Nc1ncn([C@H]2C[C@H](O)[C@@H](CO)O2)c(=O)n1 [decitabine] (first compound 1 µM, partner dose 0.5 µM), for which the cell count stood at 55.9%. In turn, `Nc1nc(F)nc2c1ncn2[C@@H]1O[C@H](CO)[C@@H](O)[C@@H]1O` [fludarabine] + CN(C)S(=O)(=O)c1ccc2c(c1)/C(=C/c1cc3c([nH]1)CCCC3)C(=O)N2 [SU6656] (first compound 1 µM, partner dose 2 µM) gave a cell count of 71.1%. Then `CC(=O)c1c(C)c2cnc(Nc3ccc(N4CCNCC4)cn3)nc2n(C2CCCC2)c1=O` [palbociclib] + C#Cc1cccc(Nc2ncnc3cc(OCCOC)c(OCCOC)cc23)c1 [erlotinib] (first compound 0.2 µM, partner dose 4 µM), with 76.7%.
